Source: the RNAGym collection of RNA variant scans (doi:10.1093/nar/gkz1192)
The source gives no read counts; variants with many changes may rest on few reads.

B1: CPEB3 Ribozyme (parent)
chain: UAACAGGGGGCCACAGCAGAAGCGUUCACGUCGCAGCCCCUGUCAGAUUCUGGUGAAUCUGCGAAUUCUGCUGUAUAUCUC

Variants of: B1
Experiment: self-cleavage, relative activity (ratio to wild type); higher = more cleavage; in vitro, sequencing
Method in brief: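 Relative activity was defined as the cleaved/total read fraction for a variant divided by the same fraction for the unmutated ribozyme. CPEB3 self-cleaving ribozyme libraries were made by rounds of error-prone PCR, barcoded, and transcribed in vitro with T7 RNA polymerase for 5 hours at 37°C, and cleavage ran through transcription plus a 15 min DNase I step before EDTA. Illumina sequencing of template-switched reverse transcripts gave the reads, and DNA sequencing mapped the barcodes. Averages come from three batches, using variants with at least 5 reads.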

Variant	self-cleavage
A5G G8A G33C U43A A57G U60C U80A	0.05
A5G A45G C50U A64G U72G	0.2
A5G C37U U60C	0.28
A5G A35U U43C A45G	0.23
A5G G9A U49A	0.08
A5G C23G U25C A45U U69C	0.08
A5G C40U U54C A64G U74C U78C	0.11
A5G G6A C32A A35G U67A	0.17
A5C C27A A28G G73A U78C	0.43
A5G A21G U66C	0.58
A5G A18G U26C A28U A57G	0.3
A5G C38U U80C	0.57
A5G A20G A35U U43C A65U	0.09
A5C C14A U72C	1.13
A5G A20U A21G A45G U51G U54C	0.08
A5G A18G A65G U67C	0.16
A5G A28G G33U U49C	0.21
A5G A15C U48C A57G	0.7
A5G A21G U51C U66A	0.27
A5G A47G U60C U72A	0.1
A5G A18U U26A U49C	0.42

Variant	self-cleavage
A5G A13U G52C U60C U67A U80C	0.44
A5C C29U U41C U60C A64G	0.11
A5C U25A U51A A57G A75C U76C	0.11
A5G A18G U41A A56G	0.12
A5G C17U C40A U58C	0.1
A5G A13U U72A	0.45
A5G A45U A47G U67C	0.29
A5G A13G U25C U48C	0.08
A5G A15G U31C U41C U51A G55U	0.1
A5G G9A G55U A64G U69G U72A U80C	0.14
A5G C12U A15G U54A C59A G61C	0.03
A5G A18U A45C C62A A64G A75G	0.13
A5G G7U U54C G70A U72C	0.09
A5G A15G A35U U60C	0.07
A5G A20U U25C U49C A56G A57G A65G	0
A5G A45G G63A U66A	0.39
A5G C14U A64U	0.51
A5G A13C G33A U51A	0.17
A5G A13U G52A	0.9
A5G A15U C29U U58A A65G U78C	0.09
A5G A18G C40U U49C A56G C71A	0

Variant	self-cleavage
A5C U26C U31C	0.87
A5G A13U U49C U58C	0.23
A5G A13U G52C A57G	1.01
A5G A20U A57G U74A	0.46
A5G A20G C34G U41A U54A A57G	0.1
A5G G10A C27U C62A	0.26
A5C G24A C39A A57G	0.38
A5G C23U U25C	0.04
A5G A13G A20G U58C A77U	0.08
A5G A20G C71G	0.1
A5C G36U A47G	0.32
A5C C40U U49C	0.13
A5G A20G G36C	0.73
A5G A20U U67A	0.48
A5G A15C U43A	0.73
A5G A28G U41A U49C U54C	0
A5G G10U G30C	0.34
A5G C11U A18C U67C	0.16
A5G A57G U67C	0.24
A5G A28C U43C U74C	0.57
A5G C39U A45U U80C	0.11

Variant	self-cleavage
A5G A21U U43C A45G U72A	0.65
A5G A13G A15U A56U A57G U78A	0.12
A5G A18G A20U	0.4
A5G A20G U69A A75G U78A	0.15
A5G G7A G10U U49C A64G	0.09
A5G A28G G42A U76C U78C	0.08
A5G A13U A15U C50A	0.5
A5G G10A A18U A21G U48G C79G	0.05
A5G G10U U41G A56U U74A	0.06
A5G A57G G70A	0.53
A5G C17U C23U C40A U41C A57G U66C	0.16
A5G A15U U48C U80A	0.37
A5G A13G A28U U49C U58C	0.05
A5C U26C C29G A45G U49C U72C U80C	0.09
A5G G6U G61A U74C	0.49
A5G A18G A21G U60G U80G	0.22
A5C G6A A13U C29U U43C U54A A57G	0.1
A5G A15G G73A	0.87
A5G A20G C39G	0.42
A5G A13G U26C U41A A56U U69A U74C	0.08
